# By IC50 is meant the dose at which the fit gives 50% viability; a fit beyond the top or the lowest dose is shown as a bound at that dose. AUC sums up the same curve from the lowest dose to the 256-fold higher top dose; the more sensitive the line, the further below 1. For part of these data: Where the top dose is marked as inferred, it is not printed in the source and was worked back from the curve model.
# Key:
# Assay in all cases: Viability of human cancer cell lines after 72 h of drug (GDSC screen)
# XMD15-27 = compound: C=CC(=O)Nc1ccc(C(=O)c2sc(Nc3ccc(N4CCN(C)CC4)cc3OC)nc2N)cc1 [XMD15-27]; details: top dose 10.24 µM; top dose inferred
# Method: (§1)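 Human cancer cell lines in 384-well plates, medium with 10% serum, drug for 72 h over a 256-fold dose range (nine 2-fold or five 4-fold steps up to the top dose). Adherent lines were fixed and stained with the nucleic acid dye Syto60, suspension lines read with resazurin; signal relative to control wells, capped at 0 and 100%. One two-parameter sigmoid per drug and line, fitted in a mixed model over all curves with the slope shared within a line.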
# SL 0101-1 = compound: CC(=O)O[C@@H]1[C@@H](OC(C)=O)[C@@H](O)[C@H](Oc2c(-c3ccc(O)cc3)oc3cc(O)cc(O)c3c2=O)O[C@H]1C [SL 0101-1]; details: top dose 10 µM; top dose inferred
# Method: as §1
# Temsirolimus = compound: CO[C@H]1C[C@@H]2CC[C@@H](C)[C@@](O)(O2)C(=O)C(=O)N2CCCC[C@H]2C(=O)O[C@H]([C@H](C)C[C@@H]2CC[C@@H](OC(=O)C(C)(CO)CO)[C@H](OC)C2)CC(=O)[C@H](C)/C=C(\C)[C@@H](O)[C@@H](OC)C(=O)[C@H](C)C[C@H](C)/C=C/C=C/C=C/1C [Temsirolimus]; details: top dose 0.2 µM
# Method: as §1
cell line,measurement,setting,value
"NAMALWA (Burkitt lymphoma, suspension)",AUC,XMD15-27,0.964
same,IC50,XMD15-27,> 10.2 µM
same,AUC,SL 0101-1,0.988
same,IC50,SL 0101-1,> 10 µM
same,AUC,Temsirolimus,0.855
same,IC50,Temsirolimus,0.121 µM
"NB1 (neuroblastoma, semi-adherent)",AUC,XMD15-27,0.911
same,IC50,XMD15-27,> 10.2 µM
same,AUC,SL 0101-1,0.984
same,IC50,SL 0101-1,> 10 µM
same,AUC,Temsirolimus,0.863
same,IC50,Temsirolimus,> 0.2 µM
"NB5 (neuroblastoma, adherent)",AUC,XMD15-27,0.986
same,IC50,XMD15-27,> 10.2 µM
same,AUC,SL 0101-1,0.978
same,IC50,SL 0101-1,> 10 µM
same,AUC,Temsirolimus,0.738
same,IC50,Temsirolimus,0.0603 µM
"NB6 (neuroblastoma, adherent)",AUC,XMD15-27,0.984
same,IC50,XMD15-27,> 10.2 µM
same,AUC,SL 0101-1,0.984
same,IC50,SL 0101-1,> 10 µM
same,AUC,Temsirolimus,0.957
same,IC50,Temsirolimus,> 0.2 µM
"NB10 (neuroblastoma, adherent)",AUC,XMD15-27,0.987
same,IC50,XMD15-27,> 10.2 µM
same,AUC,SL 0101-1,0.902
same,IC50,SL 0101-1,> 10 µM
same,AUC,Temsirolimus,0.779
same,IC50,Temsirolimus,0.0793 µM
"NB12 (neuroblastoma, adherent)",AUC,XMD15-27,0.873
same,IC50,XMD15-27,> 10.2 µM
same,AUC,SL 0101-1,0.979
same,IC50,SL 0101-1,> 10 µM
same,AUC,Temsirolimus,0.907
same,IC50,Temsirolimus,> 0.2 µM
"NB13 (neuroblastoma, adherent)",AUC,XMD15-27,0.99
same,IC50,XMD15-27,> 10.2 µM
same,AUC,SL 0101-1,0.982
same,IC50,SL 0101-1,> 10 µM
same,AUC,Temsirolimus,0.912
same,IC50,Temsirolimus,> 0.2 µM
"NB14 (neuroblastoma, adherent)",AUC,XMD15-27,0.989
same,IC50,XMD15-27,> 10.2 µM
same,AUC,SL 0101-1,0.978
same,IC50,SL 0101-1,> 10 µM
same,AUC,Temsirolimus,0.828
same,IC50,Temsirolimus,0.114 µM
"NB17 (neuroblastoma, adherent)",AUC,XMD15-27,0.981
same,IC50,XMD15-27,> 10.2 µM
same,AUC,SL 0101-1,0.978
same,IC50,SL 0101-1,> 10 µM
same,AUC,Temsirolimus,0.975
same,IC50,Temsirolimus,> 0.2 µM
"NB69 (neuroblastoma, adherent)",AUC,XMD15-27,0.99
same,IC50,XMD15-27,> 10.2 µM
same,AUC,SL 0101-1,0.971
same,IC50,SL 0101-1,> 10 µM
same,AUC,Temsirolimus,0.321
same,IC50,Temsirolimus,0.00423 µM
"NB(TU)1-10 (neuroblastoma, adherent)",AUC,XMD15-27,0.993
same,IC50,XMD15-27,> 10.2 µM
same,AUC,SL 0101-1,0.982
same,IC50,SL 0101-1,> 10 µM
same,AUC,Temsirolimus,0.99
same,IC50,Temsirolimus,> 0.2 µM
"NB-4 (acute myeloid leukaemia, suspension)",AUC,XMD15-27,0.918
same,IC50,XMD15-27,> 10.2 µM
same,AUC,SL 0101-1,0.99
same,IC50,SL 0101-1,> 10 µM
same,AUC,Temsirolimus,0.874
same,IC50,Temsirolimus,0.136 µM
"NCC021 (kidney, adherent)",AUC,XMD15-27,0.959
same,IC50,XMD15-27,> 10.2 µM
same,AUC,SL 0101-1,0.976
same,IC50,SL 0101-1,> 10 µM
same,AUC,Temsirolimus,0.835
same,IC50,Temsirolimus,0.164 µM
"NCI-H23 (lung adenocarcinoma, adherent)",AUC,XMD15-27,0.988
same,IC50,XMD15-27,> 10.2 µM
same,AUC,SL 0101-1,0.985
same,IC50,SL 0101-1,> 10 µM
same,AUC,Temsirolimus,0.832
same,IC50,Temsirolimus,0.126 µM
"NCI-H28 (mesothelioma, adherent)",AUC,XMD15-27,0.973
same,IC50,XMD15-27,> 10.2 µM
same,AUC,SL 0101-1,0.974
same,IC50,SL 0101-1,> 10 µM
same,AUC,Temsirolimus,0.815
same,IC50,Temsirolimus,0.156 µM
"NCI-H64 (small cell lung carcinoma, suspension)",AUC,XMD15-27,0.996
same,IC50,XMD15-27,> 10.2 µM
same,AUC,SL 0101-1,0.995
same,IC50,SL 0101-1,> 10 µM
same,AUC,Temsirolimus,0.98
same,IC50,Temsirolimus,> 0.2 µM
"NCI-H69 (small cell lung carcinoma, suspension)",AUC,XMD15-27,0.981
same,IC50,XMD15-27,> 10.2 µM
same,AUC,SL 0101-1,0.986
same,IC50,SL 0101-1,> 10 µM
same,AUC,Temsirolimus,0.935
same,IC50,Temsirolimus,> 0.2 µM
"NCI-H82 (small cell lung carcinoma, suspension)",AUC,XMD15-27,0.989
same,IC50,XMD15-27,> 10.2 µM
same,AUC,SL 0101-1,0.975
same,IC50,SL 0101-1,> 10 µM
same,AUC,Temsirolimus,0.94
same,IC50,Temsirolimus,> 0.2 µM
"NCI-H187 (small cell lung carcinoma, suspension)",AUC,XMD15-27,0.981
same,IC50,XMD15-27,> 10.2 µM
same,AUC,SL 0101-1,0.988
same,IC50,SL 0101-1,> 10 µM
same,AUC,Temsirolimus,0.926
same,IC50,Temsirolimus,> 0.2 µM
"NCI-H209 (small cell lung carcinoma, suspension)",AUC,XMD15-27,0.937
same,IC50,XMD15-27,> 10.2 µM
same,AUC,SL 0101-1,0.949
same,IC50,SL 0101-1,> 10 µM
same,AUC,Temsirolimus,0.765
same,IC50,Temsirolimus,0.0785 µM
"NCI-H211 (small cell lung carcinoma, adherent)",AUC,XMD15-27,0.985
same,IC50,XMD15-27,> 10.2 µM
same,AUC,SL 0101-1,0.982
same,IC50,SL 0101-1,> 10 µM
same,AUC,Temsirolimus,0.906
same,IC50,Temsirolimus,> 0.2 µM
"NCI-H226 (lung squamous cell carcinoma, adherent)",AUC,XMD15-27,0.987
same,IC50,XMD15-27,> 10.2 µM
same,AUC,SL 0101-1,0.987
same,IC50,SL 0101-1,> 10 µM
same,AUC,Temsirolimus,0.943
same,IC50,Temsirolimus,> 0.2 µM
"NCI-H322M (lung adenocarcinoma, suspension)",AUC,XMD15-27,0.975
same,IC50,XMD15-27,> 10.2 µM
same,AUC,SL 0101-1,0.943
same,IC50,SL 0101-1,> 10 µM
same,AUC,Temsirolimus,0.957
same,IC50,Temsirolimus,> 0.2 µM
"NCI-H345 (small cell lung carcinoma, suspension)",AUC,XMD15-27,0.987
same,IC50,XMD15-27,> 10.2 µM
same,AUC,SL 0101-1,0.99
same,IC50,SL 0101-1,> 10 µM
same,AUC,Temsirolimus,0.968
same,IC50,Temsirolimus,> 0.2 µM
"NCI-H446 (small cell lung carcinoma, semi-adherent)",AUC,XMD15-27,0.96
same,IC50,XMD15-27,> 10.2 µM
same,AUC,SL 0101-1,0.985
same,IC50,SL 0101-1,> 10 µM
same,AUC,Temsirolimus,0.89
same,IC50,Temsirolimus,> 0.2 µM
"NCI-H510A (small cell lung carcinoma, semi-adherent)",AUC,XMD15-27,0.988
same,IC50,XMD15-27,> 10.2 µM
same,AUC,SL 0101-1,0.987
same,IC50,SL 0101-1,> 10 µM
same,AUC,Temsirolimus,0.92
same,IC50,Temsirolimus,> 0.2 µM
"NCI-H520 (lung squamous cell carcinoma, adherent)",AUC,XMD15-27,0.978
same,IC50,XMD15-27,> 10.2 µM
same,AUC,SL 0101-1,0.979
same,IC50,SL 0101-1,> 10 µM
same,AUC,Temsirolimus,0.891
same,IC50,Temsirolimus,> 0.2 µM
"NCI-H524 (small cell lung carcinoma, suspension)",AUC,XMD15-27,0.988
same,IC50,XMD15-27,> 10.2 µM
same,AUC,SL 0101-1,0.989
same,IC50,SL 0101-1,> 10 µM
same,AUC,Temsirolimus,0.939
same,IC50,Temsirolimus,> 0.2 µM
"NCI-H526 (small cell lung carcinoma, suspension)",AUC,XMD15-27,0.938
same,IC50,XMD15-27,> 10.2 µM
same,AUC,SL 0101-1,0.989
same,IC50,SL 0101-1,> 10 µM
same,AUC,Temsirolimus,0.894
same,IC50,Temsirolimus,> 0.2 µM
"NCI-H596 (lung adenocarcinoma, adherent)",AUC,XMD15-27,0.981
same,IC50,XMD15-27,> 10.2 µM
same,AUC,SL 0101-1,0.973
same,IC50,SL 0101-1,> 10 µM
same,AUC,Temsirolimus,0.928
same,IC50,Temsirolimus,> 0.2 µM
"NCI-H630 (large intestine, adherent)",AUC,XMD15-27,0.983
same,IC50,XMD15-27,> 10.2 µM
same,AUC,SL 0101-1,0.986
same,IC50,SL 0101-1,> 10 µM
same,AUC,Temsirolimus,0.988
same,IC50,Temsirolimus,> 0.2 µM
"NCI-H650 (lung adenocarcinoma, adherent)",AUC,XMD15-27,0.983
same,IC50,XMD15-27,> 10.2 µM
same,AUC,SL 0101-1,0.974
same,IC50,SL 0101-1,> 10 µM
same,AUC,Temsirolimus,0.956
same,IC50,Temsirolimus,> 0.2 µM

# Reference: the supplement of paper PMC4967469
